The values below come from the supplement of paper PMC10369915.

The list shows a part of the results. Cut-off read from the data, not from the text of the source: active = 3.2 or more and inactive = the rest. Only a few entries rise above the background.
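Note: displayed peptides selected on beads carrying the immobilized SH2 domain, with library peptides lacking any tyrosine serving as negative controls.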

The target of one assay is SHP2 C-SH2 domain E139D. Briefly: enrichment score (SH2-bound / input frequency) (ratio); bacterial display of known human phosphotyrosine sites (pTyr-Var adds point mutants) read by sequencing; higher = stronger binding; tyrosines were phosphorylated by kinases first. The note with it: peptide library: pTyr-Var.
On to NQDRTYFERVR [SPEN_Y632_S635R_YF], for which the enrichment score is inactive: 0.636.

RGKDSYETSQL [SPP1_Y225]: the enrichment score is inactive: 0.497.

CNNFICGGCRG [SPINT2_Y163_Y163C]: the enrichment score is inactive: 0.802.

For the molecule ADYPDYKYRPR [SOX11_Y116], the enrichment score was inactive: 0.727.

Consider QDRTYYERVRT [SPEN_Y633_S635R], for which the enrichment score is inactive: 0.571.

As to ADFPDCKFRPR [SOX11_Y116_Y116C_YF], the enrichment score is inactive: 0.638.

As for KDQPDYKYQPR [SOX9_Y172_H169Q], the enrichment score was inactive: 0.704.

EAMPDYKKQLR [SPATA18_Y229_S227P]: the enrichment score was inactive: 0.805.

Consider QDRTFYERVRT [SPEN_Y633_S635R_YF], for which the enrichment score was inactive: 0.758.

Consider KDQPDYKFQPR [SOX9_Y172_H169Q_YF], for which the enrichment score was inactive: 0.785.

For the molecule CNNFIYGGCRG [SPINT2_Y163], the enrichment score is inactive: 2.76.

With VQVAYYTMMMN [SPATA17_Y84], the enrichment score was inactive: 2.31.

For the molecule KDHPDYEFQPR [SOX9_Y172_K173E_YF], the enrichment score is inactive: 0.587.

For the molecule KDHLDYKFQPR [SOX9_Y172_P170L_YF], the enrichment score was inactive: 0.899.

With ELCSEYRKSRK [SPINK5_Y440], the enrichment score is inactive: 0.623.

For KDHPDYEYQPR [SOX9_Y172_K173E], the enrichment score is inactive: 0.532.

For TVQVAYYTMMM [SPATA17_Y83], the enrichment score is inactive: 0.683.

Regarding SRPTQYSSFAC [SPEM2_Y104_S108A], the enrichment score was inactive: 0.765.

In the case of VQVAYYTVMMN [SPATA17_Y84_M86V], the enrichment score is inactive: 2.55.

In a further assay the target is SHP2 C-SH2 domain wild-type. The assay is described as above. The note with it: peptide library: pTyr-Var.
Take NQDRTYFERVR [SPEN_Y632_S635R_YF]: the enrichment score was inactive: 0.564.

RGKDSYETSQL [SPP1_Y225]: the enrichment score is inactive: 0.534.

For the molecule CNNFICGGCRG [SPINT2_Y163_Y163C], the enrichment score is inactive: 0.83.

As for ADYPDYKYRPR [SOX11_Y116], the enrichment score is inactive: 0.721.

Take QDRTYYERVRT [SPEN_Y633_S635R]: the enrichment score is inactive: 1.07.

Consider ADFPDCKFRPR [SOX11_Y116_Y116C_YF], for which the enrichment score is inactive: 0.71.

Regarding KDQPDYKYQPR [SOX9_Y172_H169Q], the enrichment score is inactive: 0.541.

Regarding EAMPDYKKQLR [SPATA18_Y229_S227P], the enrichment score is inactive: 0.848.

For QDRTFYERVRT [SPEN_Y633_S635R_YF], the enrichment score is inactive: 1.8.

Turning to KDQPDYKFQPR [SOX9_Y172_H169Q_YF], the enrichment score is inactive: 0.74.

In the case of CNNFIYGGCRG [SPINT2_Y163], the enrichment score is inactive: 2.49.

As for VQVAYYTMMMN [SPATA17_Y84], the enrichment score was inactive: 2.42.

KDHPDYEFQPR [SOX9_Y172_K173E_YF]: the enrichment score is inactive: 0.528.

Take KDHLDYKFQPR [SOX9_Y172_P170L_YF]: the enrichment score was inactive: 0.934.

For ELCSEYRKSRK [SPINK5_Y440], the enrichment score is inactive: 0.441.

In the case of KDHPDYEYQPR [SOX9_Y172_K173E], the enrichment score was inactive: 0.582.

For TVQVAYYTMMM [SPATA17_Y83], the enrichment score was inactive: 0.926.

Turning to SRPTQYSSFAC [SPEM2_Y104_S108A], the enrichment score is inactive: 0.874.

Regarding VQVAYYTVMMN [SPATA17_Y84_M86V], the enrichment score was inactive: 2.42.

For a further assay, the target named is SHP2 N-SH2 domain L43F. Described as above. As to conditions: peptide library: pTyr-Var.
For NQDRTYFERVR [SPEN_Y632_S635R_YF], the enrichment score is inactive: 0.683.

Turning to RGKDSYETSQL [SPP1_Y225], the enrichment score is inactive: 0.577.

For CNNFICGGCRG [SPINT2_Y163_Y163C], the enrichment score is inactive: 0.731.

With ADYPDYKYRPR [SOX11_Y116], the enrichment score was inactive: 0.763.

For QDRTYYERVRT [SPEN_Y633_S635R], the enrichment score was inactive: 0.588.

In the case of ADFPDCKFRPR [SOX11_Y116_Y116C_YF], the enrichment score was inactive: 0.572.

Turning to KDQPDYKYQPR [SOX9_Y172_H169Q], the enrichment score is inactive: 0.611.

As for EAMPDYKKQLR [SPATA18_Y229_S227P], the enrichment score was inactive: 0.743.

In the case of QDRTFYERVRT [SPEN_Y633_S635R_YF], the enrichment score was inactive: 0.524.

On to KDQPDYKFQPR [SOX9_Y172_H169Q_YF], for which the enrichment score is inactive: 0.694.

With CNNFIYGGCRG [SPINT2_Y163], the enrichment score is inactive: 2.6.

Take VQVAYYTMMMN [SPATA17_Y84]: the enrichment score was inactive: 1.99.

As to KDHPDYEFQPR [SOX9_Y172_K173E_YF], the enrichment score was inactive: 0.588.

Consider KDHLDYKFQPR [SOX9_Y172_P170L_YF], for which the enrichment score was inactive: 0.995.

For ELCSEYRKSRK [SPINK5_Y440], the enrichment score was inactive: 0.367.

As to KDHPDYEYQPR [SOX9_Y172_K173E], the enrichment score was inactive: 0.536.

TVQVAYYTMMM [SPATA17_Y83]: the enrichment score is inactive: 0.567.

For SRPTQYSSFAC [SPEM2_Y104_S108A], the enrichment score was inactive: 0.62.

Turning to VQVAYYTVMMN [SPATA17_Y84_M86V], the enrichment score was inactive: 2.07.

The next assay has as its target SHP2 N-SH2 domain T42A. Described as above. The note with it: peptide library: pTyr-Var.
For the molecule NQDRTYFERVR [SPEN_Y632_S635R_YF], the enrichment score is inactive: 0.56.

Take RGKDSYETSQL [SPP1_Y225]: the enrichment score is inactive: 0.721.

Take CNNFICGGCRG [SPINT2_Y163_Y163C]: the enrichment score was inactive: 0.716.

With ADYPDYKYRPR [SOX11_Y116], the enrichment score is inactive: 0.59.

On to QDRTYYERVRT [SPEN_Y633_S635R], for which the enrichment score was inactive: 1.21.

On to ADFPDCKFRPR [SOX11_Y116_Y116C_YF], for which the enrichment score is inactive: 0.499.

For KDQPDYKYQPR [SOX9_Y172_H169Q], the enrichment score is inactive: 0.63.

As to EAMPDYKKQLR [SPATA18_Y229_S227P], the enrichment score is inactive: 0.698.

In the case of QDRTFYERVRT [SPEN_Y633_S635R_YF], the enrichment score is inactive: 1.04.

KDQPDYKFQPR [SOX9_Y172_H169Q_YF]: the enrichment score was inactive: 0.701.

Consider CNNFIYGGCRG [SPINT2_Y163], for which the enrichment score was inactive: 2.14.

As for VQVAYYTMMMN [SPATA17_Y84], the enrichment score is inactive: 1.87.

As for KDHPDYEFQPR [SOX9_Y172_K173E_YF], the enrichment score was inactive: 0.536.

Regarding KDHLDYKFQPR [SOX9_Y172_P170L_YF], the enrichment score is inactive: 0.779.

ELCSEYRKSRK [SPINK5_Y440]: the enrichment score is inactive: 0.426.

As for KDHPDYEYQPR [SOX9_Y172_K173E], the enrichment score is inactive: 0.424.

Regarding TVQVAYYTMMM [SPATA17_Y83], the enrichment score was inactive: 0.936.

In the case of SRPTQYSSFAC [SPEM2_Y104_S108A], the enrichment score is inactive: 0.649.

Consider VQVAYYTVMMN [SPATA17_Y84_M86V], for which the enrichment score is inactive: 1.94.

The next assay concerns the target SHP2 N-SH2 domain T52S. Described as above. As to conditions: peptide library: pTyr-Var.
With NQDRTYFERVR [SPEN_Y632_S635R_YF], the enrichment score was inactive: 0.668.

Consider RGKDSYETSQL [SPP1_Y225], for which the enrichment score was inactive: 0.505.

For the molecule CNNFICGGCRG [SPINT2_Y163_Y163C], the enrichment score was inactive: 0.815.

Consider ADYPDYKYRPR [SOX11_Y116], for which the enrichment score is inactive: 0.741.

With QDRTYYERVRT [SPEN_Y633_S635R], the enrichment score was inactive: 0.447.

Take ADFPDCKFRPR [SOX11_Y116_Y116C_YF]: the enrichment score is inactive: 0.549.

As to KDQPDYKYQPR [SOX9_Y172_H169Q], the enrichment score was inactive: 0.548.

Regarding EAMPDYKKQLR [SPATA18_Y229_S227P], the enrichment score was inactive: 0.815.

As to QDRTFYERVRT [SPEN_Y633_S635R_YF], the enrichment score is inactive: 0.553.

KDQPDYKFQPR [SOX9_Y172_H169Q_YF]: the enrichment score was inactive: 0.665.

Turning to CNNFIYGGCRG [SPINT2_Y163], the enrichment score is inactive: 2.54.

As for VQVAYYTMMMN [SPATA17_Y84], the enrichment score was inactive: 1.83.

In the case of KDHPDYEFQPR [SOX9_Y172_K173E_YF], the enrichment score was inactive: 0.515.

Turning to KDHLDYKFQPR [SOX9_Y172_P170L_YF], the enrichment score is inactive: 0.839.

On to ELCSEYRKSRK [SPINK5_Y440], for which the enrichment score was inactive: 0.511.

With KDHPDYEYQPR [SOX9_Y172_K173E], the enrichment score was inactive: 0.457.

As for TVQVAYYTMMM [SPATA17_Y83], the enrichment score was inactive: 0.611.

In the case of SRPTQYSSFAC [SPEM2_Y104_S108A], the enrichment score was inactive: 0.657.

For VQVAYYTVMMN [SPATA17_Y84_M86V], the enrichment score is inactive: 1.65.

In another assay the target is SHP2 N-SH2 domain wild-type. The description is as above. The note with it: peptide library: pTyr-Var.
For NQDRTYFERVR [SPEN_Y632_S635R_YF], the enrichment score is inactive: 0.823.

Turning to RGKDSYETSQL [SPP1_Y225], the enrichment score was inactive: 0.737.

Regarding CNNFICGGCRG [SPINT2_Y163_Y163C], the enrichment score was inactive: 0.855.

On to ADYPDYKYRPR [SOX11_Y116], for which the enrichment score is inactive: 0.67.

In the case of QDRTYYERVRT [SPEN_Y633_S635R], the enrichment score was inactive: 0.821.

As for ADFPDCKFRPR [SOX11_Y116_Y116C_YF], the enrichment score is inactive: 0.731.

KDQPDYKYQPR [SOX9_Y172_H169Q]: the enrichment score was inactive: 0.707.

Turning to EAMPDYKKQLR [SPATA18_Y229_S227P], the enrichment score was inactive: 0.882.

In the case of QDRTFYERVRT [SPEN_Y633_S635R_YF], the enrichment score is inactive: 0.793.

On to KDQPDYKFQPR [SOX9_Y172_H169Q_YF], for which the enrichment score was inactive: 0.801.

For the molecule CNNFIYGGCRG [SPINT2_Y163], the enrichment score was inactive: 2.23.

As for VQVAYYTMMMN [SPATA17_Y84], the enrichment score is inactive: 2.03.

As for KDHPDYEFQPR [SOX9_Y172_K173E_YF], the enrichment score is inactive: 0.721.

For KDHLDYKFQPR [SOX9_Y172_P170L_YF], the enrichment score was inactive: 0.849.

For the molecule ELCSEYRKSRK [SPINK5_Y440], the enrichment score was inactive: 0.312.

For KDHPDYEYQPR [SOX9_Y172_K173E], the enrichment score was inactive: 0.56.

Regarding TVQVAYYTMMM [SPATA17_Y83], the enrichment score is inactive: 1.33.

Regarding SRPTQYSSFAC [SPEM2_Y104_S108A], the enrichment score was inactive: 0.8.

With VQVAYYTVMMN [SPATA17_Y84_M86V], the enrichment score is inactive: 2.48.
